This is an account of results in the supplement of paper PMC11417369.

± gives the standard deviation of the averaged measurements. The list shows a part of the results.

The assay relates to PfAP2-I AP2 domain 3 (GST-tagged). Kind of assay: gcPBM binding intensity (ln(normalized median fluorescence intensity)); higher = stronger DNA binding. The procedure, abridged: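 The highest Masliner-normalised natural-log median intensity across replicate spots of either probe orientation is reported as binding intensity. GST-tagged P. falciparum DNA-binding domains expressed in E. coli were applied for 1 h to an Agilent 4 × 180k array of primer-extended double-stranded 36-bp intergenic genomic probes plus negative controls, and bound protein was detected with Alexa488 anti-GST antibody and scanned at 488 nm.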
As for “TATATATTAAAATAATCACACACATCAATTAATGGT [CACACA_site8331]”, the “gcPBM binding intensity (ln)” value amounted to 7.64 ± 0.45.
Take “TTAAATATAATTATATGTACATATTTATGTATATAT [XGTACX_site5811]”: the “gcPBM binding intensity (ln)” value was 7.74 ± 0.13.
On to “AGATTGTATTTATGTACACACATTTTTGGAATATGA [CACACA_site1340]”, for which the “gcPBM binding intensity (ln)” value worked out at 7.83 ± 0.54.
Turning to “TTGATTAAAATTAGTACACACAAAATACATGCGGGG [CACACA_site5284]”, the “gcPBM binding intensity (ln)” value came out at 8.73 ± 0.13.
As for “ATATTATAATGTTTTTACGAATTCGCAAATTATTAT [GTGCAC_negctrl_site470]”, the “gcPBM binding intensity (ln)” value was found to be 7.53 ± 0.64.
Turning to “TTTTTTTTTTTTTTTTTTTTTTTTTTATGATATATA [GTGCAC_negctrl_site365]”, the “gcPBM binding intensity (ln)” value stood at 8.21 ± 0.8.
With “AATTTACAAAAAAGAAAAAAAAAAAAAAAGATACTT [CACACA_negctrl_site1434]”, the “gcPBM binding intensity (ln)” value came out at 7.33 ± 0.73.
“ATATGCACTCATTGTGCACACGCATATTACGAAAAG [CACACA_site2637]”: the “gcPBM binding intensity (ln)” value is 11 ± 0.35.
As for “TTAATTATCCATTTTGCACACATTTTAAAACATGAA [CACACA_site189]”, the “gcPBM binding intensity (ln)” value stood at 9.755 ± 0.078.
For the sequence “AAAAAAAAAAAAAACACACACACAAATACAAATGGT [CACACA_site1721]”, the “gcPBM binding intensity (ln)” value amounted to 8.27 ± 0.4.
In the case of “TTTCTTATTTTGGATTGTACGTATATTTTTCATTTT [XGTACX_site224]”, the “gcPBM binding intensity (ln)” value is 8.12 ± 0.3.
For “TATAATAATAATTATACATGCATGAATATTTATATG [TGCATGCA_site811]”, the “gcPBM binding intensity (ln)” value amounted to 7.67 ± 0.21.
As to “TCCTATATATAAATATTAATATATATGTATTGGTAT [GTGCAC_negctrl_site23]”, the “gcPBM binding intensity (ln)” value amounted to 7.57 ± 0.51.
Regarding “AACAAAAAAAAAAAAAAAAAAAAAAAAAAAAAAATG [CACACA_negctrl_site1127]”, the “gcPBM binding intensity (ln)” value was determined as 7.83 ± 0.49.
Turning to “ATGGACAAGTTAAACGCACACAAATATATACACCCA [CACACA_site8478]”, the “gcPBM binding intensity (ln)” value was found to be 8.91 ± 0.27.
As to “AATAAAAAAAATAGCATACACACATATATACATATA [CACACA_site659]”, the “gcPBM binding intensity (ln)” value turned out to be 7.46 ± 0.5.
As to “TTACACATGAGAAAATGTACATATAATAAAATATGT [XGTACX_site904]”, the “gcPBM binding intensity (ln)” value was 7.74 ± 0.51.
As to “TTATATTTCAATCATATTGTCACAAGTCATATTTAT [GTGCAC_negctrl_site366]”, the “gcPBM binding intensity (ln)” value worked out at 7.48 ± 0.54.
As to TATATATATATGTGCGTGCACGTTACCTTGCTGTTT, the “gcPBM binding intensity (ln)” value turned out to be 10.3 ± 0.61.
With “AAATTTAACAACTTCAAACACACAATATATATATAT [CACACA_site2092]”, the “gcPBM binding intensity (ln)” value was 9.1 ± 0.35.
“TTTCCAAATACAACTACACACAAACAAAAGTTATAT [CACACA_site6544]”: the “gcPBM binding intensity (ln)” value was found to be 7.72 ± 0.62.
The same measure for “TCCATATTTGTTCACACACACACATATTTATATATA [CACACA_site3570]”: 8.04 ± 0.53; for “ATTAAATGTTATATTTGTACATATTATATATATATA [XGTACX_site5095]”: 9.01 ± 0.44.
On to “TTCATTTTTTATTATAGTACACATAATATTTGCAGA [XGTACX_site4032]”, for which the “gcPBM binding intensity (ln)” value was 8.1 ± 0.23.
For “TTTGTTATTTTTTATTGTACTTTTTTTCTTTCATAA [XGTACX_site4302]”, the “gcPBM binding intensity (ln)” value stood at 8.13 ± 0.52.
With “TTTTTTAAATGTATTAAAATTATATATATATATATA [GTGCAC_negctrl_site570]”, the “gcPBM binding intensity (ln)” value came out at 9.49 ± 0.47.
Turning to “AATCAAAACAACAATAGTACATAAAAAAACAAAACA [XGTACX_site4181]”, the “gcPBM binding intensity (ln)” value was 7.91 ± 0.57.
In the case of “ATACATAAATTTAGAAGTACATAACAAATTTTTAAA [XGTACX_site7448]”, the “gcPBM binding intensity (ln)” value was 7.77 ± 0.4.
For the sequence “ATAAAAATTTAAAAAGAACACACGAAAGAAGGACTT [CACACA_site3929]”, the “gcPBM binding intensity (ln)” value turned out to be 8.06 ± 0.81.
Consider “GTGAGCTCAGACTACACACACAAAGAAAAAAATAAA [CACACA_site1553]”, for which the “gcPBM binding intensity (ln)” value is 7.65 ± 0.47.
In the case of “ATATTTTTAGGTGATTATTATTCGGAGAAGCGAATT [CACACA_negctrl_site1097]”, the “gcPBM binding intensity (ln)” value was found to be 7.41 ± 0.59.
The figure for “TATATAAACACGTACACACACATATCTGTATTTATA [CACACA_site5858]” is 8.32 ± 0.2; for “AATACCTACCAAACATGTACATACGCTTCTCAAATA [XGTACX_site5535]” it is 8.29 ± 0.53; for “ATACAACAAAAATAAGCACACACAAATATACATACA [CACACA_site9201]” it is 8.18 ± 0.4.
The same measure for “AACAAATACAGACACACACACACACCCAAAAAAAAA [CACACA_site515]”: 8.31 ± 0.22; for “AATAAGAGGATACATTGTACATAAAAAAAAAAAATA [XGTACX_site1815]”: 7.71 ± 0.38.
Take “AGCAAAACAAAAAAATTAAAATTAACATATAATCAT [GTGCAC_negctrl_site393]”: the “gcPBM binding intensity (ln)” value is 7.38 ± 0.62.
For the sequence “TTTTGAAGCTTTAAAACATATATATATATATATATA [CACACA_negctrl_site184]”, the “gcPBM binding intensity (ln)” value was 9.62 ± 0.48.
Consider “TATTGTTCTTATTTAGTGCATATATAATATAATATA [GTGCAC_site9827]”, for which the “gcPBM binding intensity (ln)” value stood at 10.3 ± 0.26.
With ATGTTCTTATTATTGGTGCAAGAATACACAAGAAAA, the “gcPBM binding intensity (ln)” value was found to be 10.1 ± 0.31.
For “TATGTGAATAAATAAGCACACATAAACACATATATA [CACACA_site9359]”, the “gcPBM binding intensity (ln)” value worked out at 8.06 ± 0.42.
Turning to “AACACATAATAAAATTGTACCCAACATTTCTTTTGA [XGTACX_site8061]”, the “gcPBM binding intensity (ln)” value was 7.63 ± 0.64.
The same measure for “GTGTATAGAATGGTTTCTTTTAAGGTTTTTATTTTT [CACACA_negctrl_site564]”: 8.12 ± 0.17.
Regarding “AGGTTCTTTTTAAATGGTACACATAATTTGAAGATA [XGTACX_site400]”, the “gcPBM binding intensity (ln)” value was 7.76 ± 0.45.
